# Measured values taken from PubChem BioAssay AID1508642 (National Center for Advancing Translational Sciences (NCATS), 2021).
# Screen size: about 43,000 compounds; about 200 (0.47%) were called active. About 12% were inconclusive and are not listed. The call rests on the fitted dose curve; in most records, active means well fitted cell-killing curve with a large enough effect; inconclusive means small, poorly fitted or top-dose-only effect, or effect the other way; inactive means flat fitted curve, though single readings scatter. This is one part of the list.
# Test: Cell viability qHTS assay in S16 Pmp22-F2sN cells; further: nearly all actives have a fitted effect of over 65% in size
# Conditions: S16 Pmp22-F2sN Schwann cells viability, CellTiter-Glo, 24 h; series mostly up to 57.5 µM; activity change, negative = cytotoxicity: at the top concentration
# Outline: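 S16 Pmp22-F2sN Schwann cells (500-1,000/well) in phenol-red-free DMEM with 10% FBS received 23 nL compound by pin tool for 24 h at 37 °C. Viability was then read as CellTiter-Glo luminescence after 15 min at room temperature.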
# On the % scale 0 is the no-effect control and ±100 the full control effect.
row,SMILES,"activity change, negative = cytotoxicity"
1,Cc1ccc(CCNC(=O)C2CC(=O)N(CCc3ccc(C)cc3)C2)cc1 (configuration not stated),inactive: 1.31%
2,CCOC(=O)c1cccc(NC(=O)C2COc3ccc(OC)cc3C2)c1 (configuration not stated),inactive: -1.78%
3,CC(C)(C)OC(=O)N1CCC(c2c(C(=O)N3CCN(c4cccc(Cl)c4)CC3)cnn2-c2cccc(Cl)c2)CC1,inactive: -10.3%
4,CCOC(=O)C1CCN(C(=O)Cn2nc(C)n3c(cc4c(OC)cccc43)c2=O)CC1,inactive: -1.92%
5,CCC1CN(C(=O)NCc2ccc(F)cc2)c2cc(C)ccc2O1 (configuration not stated),inactive: 7.72%
6,O=C(CSc1ccnc(=O)[nH]1)NCc1ccc(F)cc1,inactive: 5.65%
7,COc1cccc(C(c2sc3nc(-c4ccco4)nn3c2O)N2CCC(C)CC2)c1 (configuration not stated),inactive: 8.89%
8,CCc1ccc(NC(=O)C2CCCN(S(=O)(=O)c3ccc4[nH]c(=O)ccc4c3)C2)cc1 (configuration not stated),inactive: 5.26%
9,CSc1ccc(C2c3c(-c4ccccc4O)n[nH]c3C(=O)N2Cc2ccncc2)cc1 (configuration not stated),inactive: -25.9%
10,Cc1cccc2c(=O)cc(CSc3ccccc3NC(=O)c3cccc(Cl)c3)[nH]c12,inactive: -8.74%
11,Cc1ccc2nc(CSc3nnc(NC(=O)C(C)C)s3)cc(=O)n2c1,inactive: 8.62%
12,CCOc1ccc(-c2cc3c(=O)n(Cc4nc(-c5ccc(OCC)c(OC)c5)oc4C)ccn3n2)cc1Cl,inactive: -0.381%
13,CCCCn1cc2c(c1-c1ccc(Br)cc1)c(=O)n(C)c(=O)n2C,inactive: -7.18%
14,O=c1c2sc3ccccc3c2n(Cc2cccc(Cl)c2)c(=O)n1Cc1ccccc1,inactive: 13.8%
15,CCOc1ccc(OCC)c(NC(=O)c2cnn(-c3ccc(F)cc3)c2-n2cccc2)c1,inactive: 11.9%
16,CCc1ccc(-n2nc(C)c3c(C)cc(=O)n(CC(=O)Nc4cc(Cl)ccc4OC)c32)cc1,inactive: -18.7%
17,COc1cc(NC(=O)NCCc2c(C)nn(C)c2C)cc(OC)c1OC,inactive: 5.27%
18,CCCN1CCN(c2nnc(-n3cccc3C(=O)Nc3ccccc3C(F)(F)F)s2)CC1,inactive: -1.39%
19,Cc1cccc(OCC(=O)Nc2c(C(=O)Nc3ccc(F)cc3)oc3ccccc23)c1,inactive: 6.62%
20,Cc1cccc(N2C(=O)CSC23C(=O)N(C)c2ccccc23)c1 (configuration not stated),inactive: 10.1%
21,Cc1cccc(C(=O)NCCc2nc3ccccc3n2CCC(C)C)c1,inactive: -8.29%
22,COc1ccc(NCc2cc3ccc(OC)cc3n(CC(=O)Nc3ccc(C)c(C)c3)c2=O)cc1,inactive: 9.72%
23,COc1ccc(-c2nnn3c2nc(NCCc2ccc(OC)c(OC)c2)c2ccccc23)cc1,inactive: 15.7%
24,Cc1nn2c(=O)cc(COc3ccc(/C=C(\C#N)C(=O)Nc4ccccc4C)cc3)nc2s1,inactive: -4.02%
25,COc1ccc(OC)c(Nc2nc3ccccc3nc2-n2nc(C)cc2C)c1,inactive: 3.11%
26,CCCCN(CCCC)CCCNC(=O)c1ccc2nc(N3CCCCC3)sc2c1,inactive: 10.7%
27,Cc1ccc(CNC(=O)CCNS(=O)(=O)c2ccc3c(c2)CCCC(=O)N3)cc1,inactive: 13.5%
